Results from the supplement of paper PMC10441789.
This is one part of the list. Antibody binding of pooled human sera (four to six donors per pool; dilution not stated) to peptides of the Trypanosoma cruzi antigen TSSA on microarrays. Quantile-normalised fluorescence in arbitrary units, mean of duplicate arrays; higher = more binding. No active / inactive call. The uninfected pools are read here as the healthy donors of the same country. The strongest signals lie near the top of the scale (about 60,000).

test system: pooled sera of uninfected people, Colombia; test: antibody binding signal (normalised fluorescence) (arbitrary fluorescence units); higher = stronger serum antibody binding to peptide
Description: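 Microarray of 15-residue peptides over residues 30-55 of Trypanosoma cruzi TSSAII, each with 1 to 10 substitutions at naturally variable positions, probed with one serum pool per country.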

| Sequence | antibody binding signal |
| --- | --- |
| SGKENKAATGETPSQ | 636 |
| TISTPPSGKENKPAA | 685 |
| SGTDNKPATGGTPSQ | 284 |
| SGKDNKTAAGGAPSQ | 521 |
| SGTDNKPATGETPSQ | 224 |
| GKDKKTAAGEAPSQS | 233 |
| TPPSGTENKTAAGEA | 263 |
| STPPSGTENKPAAGG | 1270 |
| SGTDKKTATGEAPSQ | 154 |
| EKKPATGETPSPPGA | 174 |
| TENKPATGGTPSPSG | 406 |
| KDNKAATGEAPSQSG | 190 |
| PPSGKDNKTATGETP | 347 |
| TPPSGKENKPAAGEA | 854 |
| TPPSGTEKKPATGGT | 200 |
| KDNKPATGGTPSQPG | 209 |
| TPPSGTDKKTATGGA | 241 |
| TDNKTAAGEAPSQPG | 144 |
| GKENKPAAGGAPSQS | 164 |
| GTDNKTAAGGAPSQP | 182 |

| Sequence | antibody binding signal |
| --- | --- |
| GKDKKTATGEAPSPP | 96.4 |
| GTENKTAAGEAPSPP | 253 |
| TENKAAAGEAPSPPG | 74.5 |
| GKDKKAATGGAPSPS | 213 |
| GTDKKAATGEAPSQS | 423 |
| SGKDNKTAAGEAPSQ | 822 |
| TISTPPSGKDNKTAA | 274 |
| GTDKKPAAGETPSQP | 533 |
| SGTDKKTAAGGAPSP | 258 |
| KKPAAGGAPSQPGAS | 85 |
| DNKAAAGETPSQSGA | 166 |
| TDNKAATGGTPSQSG | 210 |
| PSGKDKKPAAGEAPS | 115 |
| KDKKPAAGGAPSQPG | 81.6 |
| SSTPPSGTDKKTAAG | 141 |
| KAAAGETPSQPGASS | 218 |
| KEKKTATGEAPSPPG | 82 |
| EKKPATGGAPSPPGA | 163 |
| EKKAAAGGAPSQSGA | 121 |
| DNKPATGETPSQPGA | 259 |
